{
  "source": "patent US20250295801A1",
  "about": "“CD25 ANTIBODIES, ANTIBODY DRUG CONJUGATES, AND USES THEREOF” (Seagen Inc., priority 2024, published 2025)",
  "molecules": {"B1": {"name": "SG25Ab-9 YH98A (antibody)", "heavy": "QVQLVQSGAEVKKPGESLKISCKGSGYSSTSYWIGWVRQMPGKGLEWMGIIYPGDSDTRYSPSFQGQVTISADKSISTAYLQWSSLKASDTAMYYCARLGSAYAFDIWGRGTMVTVSS[human IgG1 constant region left out here]", "light": "QSALTQPASVSASPGQSITISCTGTSSDVGAYIYVSWYQQLSGKPPKLILYDVSKRPSGISDRFSGSKSGNTASLTISGLQADDEADYYCSSYTRSSTWVFGGGTQLTVLGQPKAAPSVTLFPPSSEELQANKATLVCLISDFYPGAVTVAWKADSSPVKAGVETTTPSKQSNNKYAASSYLSLTPEQWKSHRSYSCQVTHEGSTVEKTVAPTECS"}},
  "key": {"recombinant human CD25 [1]": {"biological_target": "T1, recombinant human CD25 (Homo sapiens, UniProt P01589)", "T1 construct": "biotin (biotinylated); purchased Acro Biosystems", "T1 sequence (P01589 22-272)": "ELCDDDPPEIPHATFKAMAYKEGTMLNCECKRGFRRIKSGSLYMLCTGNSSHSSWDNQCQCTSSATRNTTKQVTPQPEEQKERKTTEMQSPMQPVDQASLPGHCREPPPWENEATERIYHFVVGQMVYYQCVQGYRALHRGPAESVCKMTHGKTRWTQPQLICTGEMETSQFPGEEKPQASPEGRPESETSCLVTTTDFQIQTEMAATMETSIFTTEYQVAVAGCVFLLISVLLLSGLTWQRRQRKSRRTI", "experiment": "Kinetic binding assay (ForteBio Octet RED384) on biotinylated recombinant human CD25", "conditions": "for kinetic binding to recombinant human CD25 (binding curves): FIG. 6A, 6B", "method": "Biotinylated recombinant human CD25 was obtained from Acro Biosystems. Biotinylated hCD25 protein was loaded on SAX (High sensitivity streptavidin) tips at 0.8 nM loading density. Affinity measurements were run using a ForteBio Octet RED384 instrument in the kinetic buffer comprising 1×PBS, 0.1% BSA, 0.02% Tween20, pH 7.4. Association measurements were performed for 300 seconds and disassociation measurements were performed for 900 seconds. Each curve was reference subtracted and modeled using a 1:1 global fit. KD results are reported as ka divided by kd."}, "recombinant human CD25 [2]": {"biological_target": "T2, recombinant human CD25 (Homo sapiens, UniProt P01589)", "T2 sequence (P01589 22-240 limits assumed)": "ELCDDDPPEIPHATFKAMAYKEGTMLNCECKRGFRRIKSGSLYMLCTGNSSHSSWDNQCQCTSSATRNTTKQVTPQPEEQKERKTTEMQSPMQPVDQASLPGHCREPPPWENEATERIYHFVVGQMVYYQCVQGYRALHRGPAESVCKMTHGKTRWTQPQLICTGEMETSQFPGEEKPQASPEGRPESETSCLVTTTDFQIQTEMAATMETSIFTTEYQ", "experiment": "Saturation binding analysis by ELISA", "conditions": "FIG. 7, 8A, 8B", "method": "Saturation binding ELISA experiments were performed using soluble recombinant antigens, which were diluted to an appropriate concentration in 50 mM carbonate buffer, pH 9.6. To each well of a 96- or 384-well Maxisorb ELISA plate was added 100 μL of soluble antigen. The plate was sealed and stored at 4° C. overnight. The plate was then washed 3-5 times with PBS-T was buffer (PBS, pH 7.4+0.05% Tween-20). The wells were blocked using 300 μL/well of PBS-T buffer containing BSA for 1 hour at room temperature, then washed 3-5 times with PBS-T. Dilutions of antibodies were prepared in blocking buffer and added to each well in a volume of 100 μL. The antibodies were incubated for 1 hour at room temperature, and then washed 3-5 times with PBS-T. HRP-conjugated secondary antibodies (anti-human Fc) were then added and incubated for 1 hour at room temperature. […] The absorbance at 450 nm was determined using a Spectramax 190 plate reader ([…]) and the data plotted using GraphPad Prism 6.\n(§1) Saturation binding analysis of CD25 antibody SG25Ab-9 and detuned CD25 antibody SG25Ab-9 YH98A on recombinant human and cyno CD25 was assessed by ELISA.\nSaturation binding analysis of CD25 antibody SG25Ab-9 and 15 CD25 antibody SG25Ab-9 variants on recombinant human CD25 was assessed by ELISA."}, "recombinant cyno CD25": {"tested_on": "recombinant cyno CD25", "experiment": "Saturation binding analysis by ELISA", "design": "species or system cynomolgus", "conditions": "compared with human CD25, FIG. 1A, 1B, 7", "method": "Saturation binding ELISA experiments were performed using soluble recombinant antigens, which were diluted to an appropriate concentration in 50 mM carbonate buffer, pH 9.6. To each well of a 96- or 384-well Maxisorb ELISA plate was added 100 μL of soluble antigen. The plate was sealed and stored at 4° C. overnight. The plate was then washed 3-5 times with PBS-T was buffer (PBS, pH 7.4+0.05% Tween-20). The wells were blocked using 300 μL/well of PBS-T buffer containing BSA for 1 hour at room temperature, then washed 3-5 times with PBS-T. Dilutions of antibodies were prepared in blocking buffer and added to each well in a volume of 100 μL. The antibodies were incubated for 1 hour at room temperature, and then washed 3-5 times with PBS-T. HRP-conjugated secondary antibodies (anti-human Fc) were then added and incubated for 1 hour at room temperature. The plate was washed 3-5 times with PBS-T. The ELISA was developed by adding 100 μL of TMB solution and incubating for 3-15 min at room temperature. To stop the reaction, 100 μL of 1 N sulfuric acid was added to each well. The absorbance at 450 nm was determined using a Spectramax 190 plate reader ([…]) and the data plotted using GraphPad Prism 6.\nas §1"}, "[3]": {"tested_on": "CD25-expressing L540cy tumor cells", "experiment": "NK cell mediated antibody-dependent cellular cytotoxicity (ADCC)", "format": "cell-based", "conditions": "human NK cells, L540cy target cells, 4 hours", "method": "NK cell mediated antibody dependent cellular cytotoxicity (ADCC) was examined in both fucosylated and non-fucosylated antibody forms. Human NK cells (158 V/V) were purified from a single human PBMC donor (Astarte) using an EasySep Human NK cell enrichment kit ([…] Technologies) according to the manufacturer's instructions. Antibodies were incubated with human NK cells and CD25-expressing L540cy tumor cells for 4 hours, at which time cell-mediated cytotoxicity was assessed using a CytoTox 96 Non-Radioactive Cytotoxicity Assay (Promega) according to manufacturer's instructions."}, "Tregs in human PBMCs": {"tested_on": "Tregs in human PBMCs", "experiment": "Treg depletion from peripheral blood mononuclear cells", "format": "cell-based", "conditions": "24 hours; FIG. 2B, 12", "method": "Frozen human PBMCs (Astarte) were thawed and plated at a density of 400,000 cells per well. 5-fold dilutions of antibodies were added and incubated at 37° C. for 24 hours. Samples were run by flow cytometry and Tregs were gated by labeling CD3+/CD4+/CD25+ and CD127low/neg. The extent of depletion was determined by comparison to an untreated sample."}, "L82 xenograft": {"tested_on": "L82 xenograft", "experiment": "In vivo efficacy in cell line xenograft model", "design": "species or system NSG mice", "conditions": "FIG. 4B, FIG. 11A at 1.2 mg/kg", "method": "The in vivo efficacy of CD25 ADCs was evaluated in three xenograft models that express CD25 (DEL, L82, L540cy) in either SCID (DEL, L540cy) or NSG mice (L82). To conduct the efficacy experiments, 5×10^6 cells were injected subcutaneously into 5 female mice per group. Mice were randomly divided to study groups and dosed with test article via intraperitoneal injection once the tumors reached approximately 100 mm^3. For the L82 model in NSG mice, all mice were pre-treated with 10 mg/kg human IVIG 24 hours prior to treatment. Animals were euthanized when tumor volumes reach 800-1000 mm^3. Tumor volume was calculated with the formula (volume=1/2×length×width×width). Mice showing durable regressions were terminated around day 60."}, "[4]": {"tested_on": "human CD25 transgenic mice", "experiment": "In vivo T cell depletion in human CD25 transgenic mice (spleen, flow cytometry)", "design": "species or system mouse", "conditions": "non-fucosylated antibody, 0.1 mg/kg intravenous", "method": "At 72 or 168 hours post-dose, the mice were sacrificed and the spleens harvested for flow cytometry analysis of T cell populations."}},
  "data": [
    {"molecule": "B1", "values": [
      {"measurement": "kinetic binding to recombinant human CD25 (binding curves)", "setting": "recombinant human CD25 [1]", "result": "faster off rate"},
      {"measurement": "kinetic binding to recombinant human CD25 (binding curves)", "setting": "recombinant human CD25 [1]; listed as YH98 Å", "result": "reduced binding affinity to CD25"},
      {"measurement": "ka", "setting": "recombinant human CD25 [1]; association 300 seconds", "result": 310000, "unit": "M⁻¹ s⁻¹"},
      {"measurement": "kd", "setting": "recombinant human CD25 [1]; disassociation 900 seconds", "result": 0.0043, "unit": "s⁻¹"},
      {"measurement": "binding affinity to recombinant human CD25", "setting": "recombinant human CD25 [2]", "result": "decrease in affinity to both human and cyno CD25"},
      {"measurement": "binding to recombinant cynomolgus CD25", "setting": "recombinant cyno CD25", "result": "decrease in affinity to both human and cyno CD25"},
      {"measurement": "NK-mediated ADCC activity", "setting": "[3]", "result": "reduced ADCC activity towards CD25-expressing L540cy cancer cells compared to CD25 antibody SG25Ab-9"},
      {"measurement": "Treg depletion from PBMC", "setting": "Tregs in human PBMCs", "result": "reduced Treg depleting activity in vitro"},
      {"measurement": "in vivo anti-tumor activity", "setting": "L82 xenograft", "result": "retained in vivo activity comparable to SG25Ab-9"},
      {"measurement": "depletion of human CD25 expressing mouse CD4 cells and Treg cells", "setting": "[4]; 72 hours after administration, FIG. 14B", "result": "reduced depletion of human CD25 expressing mouse CD4 cells and human CD25 expressing mouse Treg cells than CD25 antibody SG25Ab-9"},
      {"measurement": "depletion of splenic CD4 cells", "setting": "[4]; 72 hours, FIG. 14A", "result": "neither antibody depleted splenic CD4 cells"}
    ]}
  ]
}
